Source: the supplement of paper PMC6135742
“And” between values parts separate entries of the source, which are not always exact repeats. Equal values may be shown once. Where a name gives a salt, the structure may show the parent alone. ± gives the standard deviation of the averaged measurements. In all, about 2,600 compounds were measured (“total cell number (DAPI+ nuclei) relative to DMSO vehicle control”: median about -1.4, lowest 2% from about -23 on). This is one part of the list.

tested on: jimpy (Plp1 jimpy) mouse iPSC-derived oligodendrocyte progenitor cells; experiment: total cell number (DAPI+ nuclei) relative to DMSO vehicle control (SDs above negative control mean); higher = more surviving cells; conditions: 10 µM; 3 days
Experimental: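 Primary phenotypic screen of >3,000 bioactive compounds (Selleck L1700 and Sigma LO1280 libraries) at a single dose of 10 µM. Compounds were added to jimpy (Plp1 mutant) mouse iPSC-derived OPCs at the start of thyroid hormone-induced oligodendrocyte differentiation, one well per compound in 384-well plates. After 3 days cells were stained for MBP, Sox10 and DAPI and imaged with an Operetta system. MBP+ oligodendrocyte number and total cell number were expressed as the number of SDs above the mean of the DMSO negative control on the same plate (n=16 control wells per plate). Hits were defined as >=4 SD for oligodendrocytes and >=2 SD for total cells.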

SMILES	total cell number
N#Cc1ccc(N2CCN(C(=O)COc3ccc4[nH]cc(CCN)c4c3)CC2)cc1 [Donitriptan monohydrochloride]	-1.25
O=C(N[C@H]1CN2CCC1CC2)c1ccc(Cl)cc1	-0.978
O=[N+]([O-])c1ccc2nc(N3CCNCC3)ccc2c1 [Quipazine, 6-nitro-, maleate]	-3.81
c1cc2c(cc1[C@H]1OC[C@H]3[C@@H]1CO[C@@H]3c1ccc3c(c1)OCO3)OCO2 [Sesamin]	-1.28
C=C(C)[C@H]1CN[C@H](C(=O)O)[C@H]1CC(=O)O [Kainic acid]	1.03
O=C(N[C@H]1CN2CCC1CC2)c1cc2ccoc2cn1	-0.512
Cc1cc(O)ccc1Cl [Chlorocresol]	-0.703
O=[N+]([O-])c1cc(O)c(O)c([N+](=O)[O-])c1 [3,5-Dinitrocatechol]	-1.21
CN[C@@H]1C[C@@H](c2ccc(Cl)c(Cl)c2)c2ccccc21 [Indatraline hydrochloride]	-4.83
Nc1nc(N)nc(NC2CC2)n1 [Cyromazine]	0.84
CN1[C@@H]2CC[C@H]1C[C@@H](OC(=O)[C@H](CO)c1ccccc1)C2 [L-Hyoscyamine]	-0.725
CN1[C@@H]2CC[C@H]1C[C@@H](OC(=O)[C@H](CO)c1ccccc1)C2 [Hyoscyamine]	-0.387
Fc1cc(F)c2c(c1)[C@H]1C=CC[C@H]1C(c1cccnc1)N2 (some centres not stated) [Golgicide A]	-14.2
CC(C)N(CCC(C(N)=O)(c1ccccc1)c1ccccn1)C(C)C (configuration not stated) [Disopyramide phosphate]	1.43
CC(C)N(CCC(C(N)=O)(c1ccccc1)c1ccccn1)C(C)C (configuration not stated) [Disopyramide]	0.766
O=[N+]([O-])/C=C/c1ccc2c(c1)OCO2	-7
N=C(N)NN [Aminoguanidine hemisulfate]	-1.28
N=C(N)NN [Aminoguanidine hydrochloride]	-2.31
C=CCN1C[C@H](C)N([C@H](c2ccc(C(=O)N(CC)CC)cc2)c2cccc(OC)c2)C[C@H]1C	2.36
CC(Cc1ccc(OCC(=O)O)cc1)NCC(O)c1cccc(Cl)c1 (configuration not stated)	-1.76
CC(C)=CCOc1c2occc2cc2ccc(=O)oc12 [Imperatorin]	-0.604

SMILES	total cell number
CNCC(O)c1ccc(O)cc1 (racemic) [(±)-Synephrine]	-0.771
CCCN1CCC[C@@H]2Cc3nc(N)ncc3C[C@H]21 [Quinelorane dihydrochloride]	-1.4
C=CC[C@]1(O)CC[C@H]2[C@@H]3CCC4=CC(=O)CCC4=C3C=C[C@@]21C [Altrenogest]	-0.73
C1CCc2nnnn2CC1 [Pentylenetetrazole]	-1.24
Cn1cnc(CCN)c1 [1-Methylhistamine dihydrochloride]	-0.978
CC(Cc1ccc(O)cc1)NCC(O)c1cc(O)cc(O)c1 (configuration not stated) [Fenoterol hydrobromide]	-1.09
C/C(=C\c1csc(C)n1)[C@@H]1C[C@@H]2O[C@]2(C)CCC[C@H](C)[C@H](O)[C@@H](C)C(=O)C(C)(C)[C@@H](O)CC(=O)O1 [Epothilone B (EPO906, Patupilone)]	-2.71
Clc1cnc(Oc2ccc(Oc3ncc(Cl)cc3Cl)cc2)c(Cl)c1	-1.78
CNCCc1ccc(O)c(O)c1 [N-Methyldopamine hydrochloride]	-1.99
COC[C@H]1OC(=O)c2coc3c2[C@@]1(C)C1=C(C3=O)[C@@H]2CCC(=O)[C@@]2(C)C[C@H]1OC(C)=O [Wortmannin]	-4.55
COc1ccc2c(c1)[C@]13CCCC[C@@H]1[C@H](C2)N(C)CC3 [Dextromethorphan hydrobromide monohydrate]	-1.39
C=C[C@H]1CN2CC[C@H]1C[C@H]2[C@H](O)c1ccnc2ccccc12 [Cinchonidine]	-0.104
Cc1cccc(C(C)c2c[nH]cn2)c1C (configuration not stated) [Medetomidine HCl]	-1.02
CN1[C@@H]2CC(O)C[C@H]1[C@@H]1O[C@@H]12 (some centres not stated) [Scopine]	-0.104
CN1[C@@H]2CC(O)C[C@H]1[C@@H]1O[C@@H]12 (some centres not stated) [Scopine HCl]	0.599
S=C(NC1CCCCC1)N1CCC(c2cnc[nH]2)CC1 [Thioperamide maleate]	-0.714
NC(N)=NOCC[C@H](N)C(=O)O [L-Canavanine]	-0.705
NC(N)=NOCC[C@H](N)C(=O)O [L-Canavanine sulfate]	-1.25
N[C@@H](Cn1oc(=O)[nH]c1=O)C(=O)O [(+)-Quisqualic acid]	0.0463
CC1(C)CC(O)CC(C)(C)N1[O] [Tempol]	0.127
CC(C)(C)c1cc(C(C)(C)C)c2c(c1)C(O)(C(F)(F)F)C(=O)O2 (racemic)	-1.66

SMILES	total cell number
O=c1[nH]c2ccccc2n1CCCN1CCC(n2c(=O)[nH]c3cc(Cl)ccc32)CC1 [Domperidone]	-4.04 ± 1.3
CCCCC/C=C\C/C=C\C/C=C\C/C=C\CCCC(=O)NCc1ccc(O)c(OC)c1 [Arvanil]	-8.09
CCS(=O)(=O)Nc1cccc(C(=C2CCCCC2)c2cnc[nH]2)c1	1.08
CC[C@@H](C(N)=O)N1CCCC1=O [Levetiracetam]	-0.467 ± 0.87
O=C(O[C@H]1C[C@H]2CC[C@@H](C1)[N+]21CCCC1)C(O)(c1ccccc1)c1ccccc1 [Trospium chloride]	0.365
COc1ccc(C(=O)N2CCCC2=O)cc1 [Aniracetam]	-2.1 ± 0.41
CCCCCCCCCCCCCC(=O)O[C@@H]1[C@@H](C)[C@@]2(O)[C@@H](C=C(CO)C[C@]3(O)C(=O)C(C)=C[C@@H]23)[C@@H]2C(C)(C)[C@]12OC(C)=O [Phorbol 12-myristate 13-acetate]	-0.106
O=C1/C(=C/c2ccccc2)C[C@@]2(O)[C@H]3Cc4ccc(O)c5c4[C@@]2(CCN3CC2CC2)[C@H]1O5 [BNTX maleate salt hydrate]	-10.3
Nc1ccncc1 [4-Aminopyridine]	-1.16
C[N+]1(C)CCOC(O)(c2ccc(-c3ccc(C4(O)C[N+](C)(C)CCO4)cc3)cc2)C1 (configuration not stated) [Hemicholinium-3]	-1.43
CN(C)Cc1c[nH]c2ccccc12 [Gramine]	2.21
C[N+](C)(C)CC#CCN1CCCC1=O [Oxotremorine methiodide]	-1.48
NC(=O)c1ccc(OCC(O)CN2CC=C(c3ccc(F)cc3)CC2)cc1 (configuration not stated)	7
CC(C)(C)OC(=O)NC1[C@H]2CNC[C@@H]12 (some centres not stated)	-1.97
NC(=O)CN1CC(O)CC1=O (configuration not stated) [Oxiracetam]	-1.12
C1=C2CCCN[C@H]2[C@@H]2C[C@H]1[C@H]1CCCCN1C2 [Aloperine]	-2.1
CC(N)Cc1c[nH]c2ccc(OCc3cccs3)cc12 (configuration not stated)	-5.05
CN1CCC(c2c[nH]c3ccc(O)cc23)CC1	-0.705 and -1.42
C[N+](C)(C)CCCCCCCCCC[N+](C)(C)C [Decamethonium Bromide]	2.19
C[N+](C)(C)CCCCCCCCCC[N+](C)(C)C [Decamethonium dibromide]	-1.53
C[N+]1(C)[C@@H]2CC[C@H]1C[C@@H](OC(=O)C(CO)c1ccccc1)C2 (some centres not stated) [Atropine methyl nitrate]	-1.08

SMILES	total cell number
C[N+]1(C)[C@@H]2CC[C@H]1C[C@@H](OC(=O)C(CO)c1ccccc1)C2 (some centres not stated) [Atropine methyl bromide]	-1.18
CC1C2Cc3ccc(O)cc3C1(C)CCN2CC1CC1 (single isomer, unassigned; (+)) [(+)-Cyclazocine]	-1.89
CN1C[C@H](C(=O)N[C@]2(C)O[C@@]3(O)[C@@H]4CCCN4C(=O)[C@H](Cc4ccccc4)N3C2=O)C[C@@H]2c3cccc4[nH]cc(c34)C[C@H]21 [Dihydroergotamine methanesulfonate]	-3.83
CC(CCc1ccccc1)NC(C)C(O)c1ccc(O)cc1 (configuration not stated) [Nylidrin hydrochloride]	-0.269
O=C(O)CNC(=O)c1c(O)c2ccccc2n(Cc2ccccc2)c1=O	-0.0444
N=C(N)c1ccc(CS(=O)(=O)F)cc1 [4-Amidinophenylmethanesulfonyl fluoride hydrochloride]	-1.52
CC[C@@]1(O)C(=O)OCc2c1cc1n(c2=O)Cc2cc3ccccc3nc2-1 [(S)-(+)-Camptothecin]	-9.49
CC[C@@]1(O)C(=O)OCc2c1cc1n(c2=O)Cc2cc3ccccc3nc2-1 [Camptothecin]	-22.6
NC(CCP(=O)(O)O)C(=O)O (racemic) [(±)-2-Amino-4-phosphonobutyric acid]	-1.18
CN1c2ccccc2C(NCCCCCCC(=O)O)c2ccc(Cl)cc2S1(=O)=O (configuration not stated) [Tianeptine sodium]	3.7
CCNC(=O)C[C@@H]1N=C(c2ccc(Cl)cc2)c2cc(OC)ccc2-n2c(C)nnc21	-9.9
C#C[C@]1(O)CC[C@H]2[C@@H]3CCC4=Cc5nc6nc7ccccc7n6cc5C[C@]4(C)[C@H]3CC[C@@]21C	-3.64
Cc1ncc(CNC(=O)N(CCCl)N=O)c(N)n1 [Nimustine hydrochloride]	-2.66
C[C@H]1CCC/C=C/[C@@H]2C[C@H](O)C[C@H]2[C@H](O)/C=C/C(=O)O1 [Brefeldin A]	-15.7
COc1ccc2[nH]cc(CCN)c2c1 [O-Methylserotonin hydrochloride]	-2.98
N.N.[Cl][Pt][Cl] [Cisplatin]	0.8 ± 2.7
CC(=O)Nc1ccc(Cc2ccc(NC(C)=O)cc2)cc1	0.667
CCCN1C[C@H](CSC)C[C@@H]2c3cccc4[nH]cc(c34)C[C@H]21 [Pergolide methanesulfonate]	-1.89
CCCN1C[C@H](CSC)C[C@@H]2c3cccc4[nH]cc(c34)C[C@H]21 [Pergolide mesylate]	-1.49
